“And” between values parts separate entries of the source, which are not always exact repeats. Equal values may be shown once. Among all 330,000 compounds or so, about 300 (0.091%) were called active. Not shown: some 4% with an inconclusive outcome. Calls follow the shape of the dose curve; as a rule, active = well fitted inhibition curve with a large enough effect; inconclusive = small, poorly fitted or top-dose-only effect, or effect the other way, or another doubt; inactive = no such curve, though single readings can be large or run the other way. The list shows a part of the results, in another mix than the full data. Some structures have more than one record in an assay (separate samples or runs), and their calls can disagree.
Potency is read from the fitted curve at half-maximal effect.

The target of the assay is Lysosomal acid glucosylceramidase (Homo sapiens) (UniProt P04062). Nature of the assay: qHTS Assay for Inhibitors and Activators of N370S glucocerebrosidase as a Potential Chaperone Treatment of Gaucher Disease.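 As to activity change, negative = inhibition: 0% = full enzyme activity and -100% = no enzyme basal.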 The following applies: N370S GC spleen homogenate, 4MU-glucoside fluorescence; series mostly up to 59.4 µM; activity change, negative = inhibition: at the top concentration. Background: qHTS replaces the single test concentration by a dilution series.
As to `Cc1cc(C)cc(N(CC(=O)Nc2ccc(C)cc2Cl)S(=O)(=O)c2c(C)[nH]c(=O)[nH]c2=O)c1`, the Potency was active: 0.251 µM.

Turning to `CC(=O)OC(C)(C)C1Cc2cc3ccc(=O)oc3cc2O1` (configuration not stated), the “activity change, negative = inhibition” value is inactive: 0.382%.

As to `CC[N+](CC)(CC)CCOc1ccc(/C=C/c2ccccc2)cc1`, the “activity change, negative = inhibition” value is inactive: -16.7%.

Turning to `COc1ccccc1[C@@H]1C(c2ccc(F)cc2)=NN(c2ccccc2)[C@H]1C(=O)N1CCOC1=O`, the “activity change, negative = inhibition” value was inactive: 25.5%.

With `O=C(CSc1nc2ccccc2[nH]1)N/N=C/C=C\c1ccccc1[N+](=O)[O-]`, the “activity change, negative = inhibition” value is inactive: 28.7%.

Take `COC(=O)[C@@H]1[C@@H]2C[C@H]3c4[nH]c5ccccc5c4CCN3C[C@@H]2CC[C@@H]1O`: the Potency entry is “inactive”.

On to `CCCc1c(-c2ccc(O)cc2)nn(-c2ccc(O)cc2)c1-c1ccc(O)cc1`, for which the “activity change, negative = inhibition” value was inactive: -13.9%.

For the compound `Fc1ccc(CNc2nc(-c3ccccc3)nc3ccccc23)cc1`, the Potency is active: 14.1 µM.

As to `Oc1ccc(NC(=S)Nc2ccccc2)cc1`, the “activity change, negative = inhibition” value was inactive: 18.2%.

For the compound `O=C(OCCN=C1NS(=O)(=O)c2ccccc21)C1CC(=O)N(c2ccc3ccccc3c2)C1` (configuration not stated), the Potency was active: 3.55 µM.

As to `COc1cccc(-c2cc(=O)c3ccccc3o2)c1N`, the Potency result is “inactive”.

Take `O=C(CCc1ccc(O)cc1)c1c(O)cc(O)cc1O`: the Potency entry is “inactive and active: 17.8 µM”.

On to `CCC1Cc2cc(O)ccc2C2=C1c1ccc(O)cc1CC2CC` (configuration not stated), for which the “activity change, negative = inhibition” value was inactive: 7.78%.

For `O=c1cc(-c2ccc(O)cc2)oc2ccc(O)cc12`, the “activity change, negative = inhibition” value is inactive: 6.8%.

On to `CN1CCN(CCCN2c3ccccc3Sc3ccc(C(F)(F)F)cc32)CC1`, for which the Potency result is “inactive”.

For `CCCn1c(N)[n+](CC(=O)c2ccco2)c2ccccc21`, the “activity change, negative = inhibition” value was inactive: 8.06%.

Regarding `COc1ccc(-c2ccc(F)cc2)cc1C1C2C=CCC(C)C2C(=O)N1Cc1ccccc1` (configuration not stated), the “activity change, negative = inhibition” value was inactive: 7.09%.

For the compound `CN1CCN(C2Cc3ccccc3Sc3ccc(S)cc32)CC1` (configuration not stated), the Potency was active: 12.6 µM.

With `COC(=O)[C@@H]1C[C@@H]2CC[C@@H](O)C[C@@H]2N1Cc1ccc(Cl)cc1`, the “activity change, negative = inhibition” value was inactive: -25%.

As to `CCc1ccc(NC(=O)CN(c2ccc(OC)cc2)S(=O)(=O)c2c(C)[nH]c(=O)[nH]c2=O)cc1`, the Potency was active: 3.16 µM.

For `CCc1cc2c(nc1CC)CCN(CC/C(C)=N/OC[C@H]1O[C@H](c3ccccc3)C=C[C@@H]1Oc1ccc(OC)cc1)C2`, the activity change, negative = inhibition was inactive: -2.38% [at 12.8 µM].

Regarding `COc1ccc2c(c1)c(CC(=O)O)c(C)n2C(=O)c1ccc(Cl)cc1`, the Potency result is “inactive”.

Regarding `CN1CCN(CCCN2c3ccccc3Sc3ccc(Cl)cc32)CC1`, the Potency result was “inactive”.

On to `Fc1ccccc1-c1nc(NCc2ccccc2)c2ccccc2n1`, for which the Potency was active: 12.6 µM.

Consider `N=c1c2c(-c3ccccc3)c(-c3ccccc3)n(Cc3ccccc3)c2ncn1CCO`, for which the Potency was active: 3.98 µM.

As to `COc1ccc([C@H]2Sc3ccccc3N(CCN(C)C)C(=O)[C@H]2OC(C)=O)cc1`, the “activity change, negative = inhibition” value was inactive: -7.04% [at 21.6 µM].

As to `COc1ccc(CNc2nc(-c3ccccc3)nc3ccccc23)cc1OC`, the Potency was active: 14.1 µM.

Regarding `Cc1ccccc1-c1nccc(NCc2cccs2)n1`, the Potency is active: 4.47 µM.

As for `CCCCC[C@H](O)/C=C\[C@H]1[C@H](C/C=C\CCCC(=O)O)[C@@H](O)C[C@H]1O` (tested in a mixture with another compound), the “activity change, negative = inhibition” value is inactive: -6.72% [at 21.6 µM].

Regarding `CCCCC[C@H](O)/C=C/[C@H]1[C@H](O)CC(O)[C@@H]1C/C=C\CCCC(=O)O` (some centres not stated), the “activity change, negative = inhibition” value was inactive: -4.46%.

Regarding `COc1ccc(CNc2nc(-c3ccoc3)nc3ccccc23)c(OC)c1`, the Potency is active: 14.1 µM.

Take `OC(CNc1nc(-c2cccnc2)nc2ccccc12)c1ccccc1` (configuration not stated): the Potency is active: 10 µM.

With `COc1cccc(-c2ccc3ncnc(N(C)Cc4ccco4)c3c2)c1`, the “activity change, negative = inhibition” value was inactive: -16.1%.

For the compound `Cc1cc2nc3c(=O)[nH]c(=O)nc-3n(CC(O)C(O)C(O)CO)c2cc1C` (configuration not stated), the Potency result is “inactive”.

Consider `COc1ccc(C2CC(=O)Oc3c(C(CCN4CCCC(C)C4)c4ccc(N(C)C)cc4)c(OC)cc(OC)c32)cc1` (configuration not stated), for which the “activity change, negative = inhibition” value was inactive: -18.9%.

`Cc1c(C)c2ccc(O[C@@H]3O[C@H](CO)[C@@H](O)[C@H](O)[C@H]3O)c(C)c2oc1=O`: the “activity change, negative = inhibition” value is inactive: 0.724%.

`COc1ccc(C2CC(c3c(O)cc(C)oc3=O)=NCCS2)c(OC)c1` (configuration not stated): the “activity change, negative = inhibition” value was inactive: -1.78%.

`COc1ccc(C2=C(CN(C)C)C(c3ccccc3)c3ccccc3O2)cc1` (configuration not stated): the “activity change, negative = inhibition” value was inactive: -17.3%.

`COc1cccc(C(=O)Nc2ccc3nc(N4CCOCC4)cc(C)c3c2)c1`: the Potency was active: 10 µM.

`COc1cc(O)c2c(=O)cc(-c3ccccc3)oc2c1`: the “activity change, negative = inhibition” value was inactive: 26.7%.

Consider `COC(=O)C1=C(C)NC(C)=C(C(=O)OCCCN2CCC(c3ccccc3)(c3ccccc3)CC2)[C@H]1c1cccc([N+](=O)[O-])c1`, for which the “activity change, negative = inhibition” value is inactive: -23.1%.

On to `FC(F)(F)c1ccccc1-c1nccc(NCc2cccs2)n1`, for which the Potency is active: 3.16 µM.

Source of the values: PubChem BioAssay AID2101 (National Center for Advancing Translational Sciences (NCATS), 2009).
